Measured values reported in article PMC5062570 (Nature Communications, 2016).

What was measured:
[1] = biological target: PF-7802-labelled proteins in ARPE-19 cells (Homo sapiens, UniProt P04075); conditions: protein ALDOA Fructose-bisphosphate aldolase A (P04075)
[2] = biological target: PF-7802-labelled proteins in ARPE-19 cells (Homo sapiens, UniProt P05023)
[3] = biological target: PF-7802-labelled proteins in ARPE-19 cells (Homo sapiens, UniProt P0CG48); conditions: UBC Polyubiquitin-C (P0CG48)
Sequence of UniProt P0CG48 (P0CG48 whole entry): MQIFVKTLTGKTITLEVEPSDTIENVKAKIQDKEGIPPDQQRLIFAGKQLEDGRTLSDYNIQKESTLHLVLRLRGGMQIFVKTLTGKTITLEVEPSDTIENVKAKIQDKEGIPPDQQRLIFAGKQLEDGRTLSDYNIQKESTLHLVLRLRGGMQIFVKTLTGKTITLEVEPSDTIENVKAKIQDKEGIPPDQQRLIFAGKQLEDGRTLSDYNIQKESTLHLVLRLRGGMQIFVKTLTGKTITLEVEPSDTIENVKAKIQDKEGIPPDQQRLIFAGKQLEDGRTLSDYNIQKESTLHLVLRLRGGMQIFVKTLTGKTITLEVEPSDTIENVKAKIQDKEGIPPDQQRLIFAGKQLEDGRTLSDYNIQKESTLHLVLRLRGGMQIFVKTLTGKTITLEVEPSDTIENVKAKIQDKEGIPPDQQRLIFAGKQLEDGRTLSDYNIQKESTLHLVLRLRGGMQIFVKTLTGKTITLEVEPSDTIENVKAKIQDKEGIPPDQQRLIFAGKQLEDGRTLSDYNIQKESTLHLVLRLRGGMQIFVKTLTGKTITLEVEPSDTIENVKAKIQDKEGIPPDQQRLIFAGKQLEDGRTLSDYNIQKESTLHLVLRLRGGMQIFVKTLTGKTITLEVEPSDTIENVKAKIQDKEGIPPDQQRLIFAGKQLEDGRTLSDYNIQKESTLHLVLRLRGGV

[4] = biological target: PF-7802-labelled proteins in ARPE-19 cells (Homo sapiens, UniProt P10155); conditions: TROVE2 60 kDa SS-A/Ro ribonucleoprotein (P10155)
[5] = biological target: PF-7802-labelled proteins in ARPE-19 cells (Homo sapiens, UniProt P10619); conditions: protein CTSA Lysosomal protective protein (P10619)
[6] = biological target: PF-7802-labelled proteins in ARPE-19 cells (Homo sapiens, UniProt P38646)
[7] = biological target: PF-7802-labelled proteins in ARPE-19 cells (Homo sapiens, UniProt P46779); conditions: protein RPL28 60S ribosomal protein L28, P46779
[8] = biological target: PF-7802-labelled proteins in ARPE-19 cells (Homo sapiens, UniProt P49748)
[9] = biological target: PF-7802-labelled proteins in ARPE-19 cells (Homo sapiens, UniProt P51148); conditions: protein RAB5C Ras-related protein Rab-5C, P51148
[10] = biological target: PF-7802-labelled proteins in ARPE-19 cells (Homo sapiens, UniProt P61019); conditions: protein RAB2A Ras-related protein Rab-2A, P61019
Sequence of UniProt P61019 (P61019 whole entry): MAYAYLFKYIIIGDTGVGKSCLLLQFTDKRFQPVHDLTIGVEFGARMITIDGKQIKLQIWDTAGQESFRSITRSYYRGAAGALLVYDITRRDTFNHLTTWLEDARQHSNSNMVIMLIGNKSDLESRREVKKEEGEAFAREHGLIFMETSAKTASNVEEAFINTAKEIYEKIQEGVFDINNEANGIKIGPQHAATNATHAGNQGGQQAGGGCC

[11] = biological target: PF-7802-labelled proteins in ARPE-19 cells (Homo sapiens, UniProt P61158); conditions: protein ACTR3 Actin-related protein 3 (P61158)
[12] = biological target: PF-7802-labelled proteins in ARPE-19 cells (Homo sapiens, UniProt P62805)
[13] = biological target: PF-7802-labelled proteins in ARPE-19 cells (Homo sapiens, UniProt Q16643); conditions: Q16643 DBN1 Drebrin
Sequence of UniProt Q16643 (Q16643 whole entry): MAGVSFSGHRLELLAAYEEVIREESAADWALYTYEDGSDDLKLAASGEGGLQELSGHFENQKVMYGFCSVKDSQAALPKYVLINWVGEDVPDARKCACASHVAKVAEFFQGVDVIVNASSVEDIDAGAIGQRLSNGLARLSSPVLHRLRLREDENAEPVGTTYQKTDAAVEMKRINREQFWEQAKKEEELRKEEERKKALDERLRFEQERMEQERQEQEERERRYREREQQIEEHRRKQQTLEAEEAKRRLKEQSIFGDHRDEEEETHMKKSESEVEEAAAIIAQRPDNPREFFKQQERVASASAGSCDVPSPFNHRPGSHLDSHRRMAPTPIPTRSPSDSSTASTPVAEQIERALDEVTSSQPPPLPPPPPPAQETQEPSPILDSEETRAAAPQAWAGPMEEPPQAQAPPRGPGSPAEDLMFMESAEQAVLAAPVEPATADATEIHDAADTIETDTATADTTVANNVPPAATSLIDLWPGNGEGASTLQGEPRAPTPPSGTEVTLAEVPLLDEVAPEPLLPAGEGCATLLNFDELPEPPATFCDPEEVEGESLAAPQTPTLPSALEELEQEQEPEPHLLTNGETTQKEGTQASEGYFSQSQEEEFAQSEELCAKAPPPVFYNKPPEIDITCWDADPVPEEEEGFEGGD

[14] = biological target: PF-7802-labelled proteins in ARPE-19 cells (Homo sapiens, UniProt Q9NRV9); conditions: Q9NRV9 HEBP1 Heme-binding protein 1
Sequence of UniProt Q9NRV9 (Q9NRV9 whole entry): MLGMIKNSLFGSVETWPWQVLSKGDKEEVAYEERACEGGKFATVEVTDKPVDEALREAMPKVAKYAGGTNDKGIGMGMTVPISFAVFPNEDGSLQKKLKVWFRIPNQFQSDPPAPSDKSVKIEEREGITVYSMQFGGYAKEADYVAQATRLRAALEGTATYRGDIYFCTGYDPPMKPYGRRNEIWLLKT

[15] = biological target: PF-7802-labelled proteins in ARPE-19 cells (Homo sapiens, UniProt O43847); conditions: protein NRD1 Nardilysin (O43847); replicates in separate columns
[16] = biological target: PF-7802-labelled proteins in ARPE-19 cells (Homo sapiens, UniProt O76013); conditions: protein KRT36 Keratin, type I cuticular Ha6 (O76013); one column per replicate
Sequence of UniProt O76013 (O76013 whole entry): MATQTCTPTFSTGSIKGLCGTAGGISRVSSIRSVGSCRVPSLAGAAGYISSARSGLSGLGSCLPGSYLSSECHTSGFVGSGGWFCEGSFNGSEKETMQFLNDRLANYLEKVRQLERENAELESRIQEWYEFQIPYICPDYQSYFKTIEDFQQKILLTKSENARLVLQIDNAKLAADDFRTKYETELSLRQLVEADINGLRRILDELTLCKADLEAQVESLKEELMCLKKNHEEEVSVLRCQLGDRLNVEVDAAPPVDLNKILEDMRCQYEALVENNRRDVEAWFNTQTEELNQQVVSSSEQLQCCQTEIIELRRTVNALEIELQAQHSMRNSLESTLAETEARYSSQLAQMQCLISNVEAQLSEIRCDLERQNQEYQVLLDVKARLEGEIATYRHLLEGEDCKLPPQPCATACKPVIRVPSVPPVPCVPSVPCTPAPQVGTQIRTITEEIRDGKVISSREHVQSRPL

[17] = biological target: PF-7802-labelled proteins in ARPE-19 cells (Homo sapiens, UniProt P07195); conditions: protein LDHB L-lactate dehydrogenase B chain (P07195); replicates in separate columns
Sequence of UniProt P07195 (P07195 whole entry): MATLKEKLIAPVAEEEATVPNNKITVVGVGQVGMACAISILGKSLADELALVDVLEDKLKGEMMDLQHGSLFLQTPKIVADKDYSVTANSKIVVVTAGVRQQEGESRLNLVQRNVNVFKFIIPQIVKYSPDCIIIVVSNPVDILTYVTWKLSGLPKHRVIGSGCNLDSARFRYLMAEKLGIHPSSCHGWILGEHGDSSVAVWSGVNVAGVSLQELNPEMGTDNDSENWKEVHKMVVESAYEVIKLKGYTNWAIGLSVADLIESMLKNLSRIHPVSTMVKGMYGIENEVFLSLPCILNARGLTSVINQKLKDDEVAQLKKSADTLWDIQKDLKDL

[18] = biological target: PF-7802-labelled proteins in ARPE-19 cells (Homo sapiens, UniProt P11233); conditions: protein RALA Ras-related protein Ral-A, P11233
[19] = biological target: PF-7802-labelled proteins in ARPE-19 cells (Homo sapiens, UniProt P19022); conditions: protein CDH2 Cadherin-2 (P19022)
[20] = biological target: PF-7802-labelled proteins in ARPE-19 cells (Homo sapiens, UniProt P39019); conditions: protein RPS19 40S ribosomal protein S19, P39019
[21] = biological target: PF-7802-labelled proteins in ARPE-19 cells (Homo sapiens, UniProt P51572)
Sequence of UniProt P51572 (P51572 whole entry): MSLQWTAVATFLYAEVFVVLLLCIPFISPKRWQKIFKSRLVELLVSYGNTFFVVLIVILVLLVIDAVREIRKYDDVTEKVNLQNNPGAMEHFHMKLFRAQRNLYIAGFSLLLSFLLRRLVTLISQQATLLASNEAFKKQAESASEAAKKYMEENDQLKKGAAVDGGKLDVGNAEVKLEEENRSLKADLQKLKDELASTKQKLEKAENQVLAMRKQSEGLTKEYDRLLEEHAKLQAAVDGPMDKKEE

[22] = biological target: PF-7802-labelled proteins in ARPE-19 cells (Homo sapiens, UniProt P57721); conditions: protein PCBP3 Poly(rC)-binding protein 3 (P57721); replicates in separate columns
[23] = biological target: PF-7802-labelled proteins in ARPE-19 cells (Homo sapiens, UniProt P62820); conditions: protein RAB1A Ras-related protein Rab-1A, P62820
[24] = biological target: PF-7802-labelled proteins in ARPE-19 cells (Homo sapiens, UniProt Q01518); conditions: protein CAP1 Adenylyl cyclase-associated protein 1 (Q01518)
Sequence of UniProt Q01518 (Q01518 whole entry): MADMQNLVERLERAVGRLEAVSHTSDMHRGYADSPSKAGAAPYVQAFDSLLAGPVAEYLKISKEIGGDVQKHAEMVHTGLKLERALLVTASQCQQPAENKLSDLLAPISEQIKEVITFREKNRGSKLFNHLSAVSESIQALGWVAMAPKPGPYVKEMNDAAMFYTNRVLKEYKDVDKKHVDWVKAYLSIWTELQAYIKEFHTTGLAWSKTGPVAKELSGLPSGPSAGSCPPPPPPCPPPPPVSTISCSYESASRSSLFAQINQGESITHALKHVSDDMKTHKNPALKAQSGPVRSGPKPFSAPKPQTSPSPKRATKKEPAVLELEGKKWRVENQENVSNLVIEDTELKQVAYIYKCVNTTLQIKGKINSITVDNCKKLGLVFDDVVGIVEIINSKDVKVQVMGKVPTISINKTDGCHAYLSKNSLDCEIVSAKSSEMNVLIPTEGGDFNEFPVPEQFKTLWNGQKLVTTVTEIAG

[25] = biological target: PF-7802-labelled proteins in ARPE-19 cells (Homo sapiens, UniProt Q03252); conditions: protein LMNB2 Lamin-B2 (Q03252); replicates in separate columns
[26] = biological target: PF-7802-labelled proteins in ARPE-19 cells (Homo sapiens, UniProt Q8IY17); conditions: protein PNPLA6 Neuropathy target esterase (Q8IY17); replicates in separate columns
Sequence of UniProt Q8IY17 (Q8IY17 whole entry): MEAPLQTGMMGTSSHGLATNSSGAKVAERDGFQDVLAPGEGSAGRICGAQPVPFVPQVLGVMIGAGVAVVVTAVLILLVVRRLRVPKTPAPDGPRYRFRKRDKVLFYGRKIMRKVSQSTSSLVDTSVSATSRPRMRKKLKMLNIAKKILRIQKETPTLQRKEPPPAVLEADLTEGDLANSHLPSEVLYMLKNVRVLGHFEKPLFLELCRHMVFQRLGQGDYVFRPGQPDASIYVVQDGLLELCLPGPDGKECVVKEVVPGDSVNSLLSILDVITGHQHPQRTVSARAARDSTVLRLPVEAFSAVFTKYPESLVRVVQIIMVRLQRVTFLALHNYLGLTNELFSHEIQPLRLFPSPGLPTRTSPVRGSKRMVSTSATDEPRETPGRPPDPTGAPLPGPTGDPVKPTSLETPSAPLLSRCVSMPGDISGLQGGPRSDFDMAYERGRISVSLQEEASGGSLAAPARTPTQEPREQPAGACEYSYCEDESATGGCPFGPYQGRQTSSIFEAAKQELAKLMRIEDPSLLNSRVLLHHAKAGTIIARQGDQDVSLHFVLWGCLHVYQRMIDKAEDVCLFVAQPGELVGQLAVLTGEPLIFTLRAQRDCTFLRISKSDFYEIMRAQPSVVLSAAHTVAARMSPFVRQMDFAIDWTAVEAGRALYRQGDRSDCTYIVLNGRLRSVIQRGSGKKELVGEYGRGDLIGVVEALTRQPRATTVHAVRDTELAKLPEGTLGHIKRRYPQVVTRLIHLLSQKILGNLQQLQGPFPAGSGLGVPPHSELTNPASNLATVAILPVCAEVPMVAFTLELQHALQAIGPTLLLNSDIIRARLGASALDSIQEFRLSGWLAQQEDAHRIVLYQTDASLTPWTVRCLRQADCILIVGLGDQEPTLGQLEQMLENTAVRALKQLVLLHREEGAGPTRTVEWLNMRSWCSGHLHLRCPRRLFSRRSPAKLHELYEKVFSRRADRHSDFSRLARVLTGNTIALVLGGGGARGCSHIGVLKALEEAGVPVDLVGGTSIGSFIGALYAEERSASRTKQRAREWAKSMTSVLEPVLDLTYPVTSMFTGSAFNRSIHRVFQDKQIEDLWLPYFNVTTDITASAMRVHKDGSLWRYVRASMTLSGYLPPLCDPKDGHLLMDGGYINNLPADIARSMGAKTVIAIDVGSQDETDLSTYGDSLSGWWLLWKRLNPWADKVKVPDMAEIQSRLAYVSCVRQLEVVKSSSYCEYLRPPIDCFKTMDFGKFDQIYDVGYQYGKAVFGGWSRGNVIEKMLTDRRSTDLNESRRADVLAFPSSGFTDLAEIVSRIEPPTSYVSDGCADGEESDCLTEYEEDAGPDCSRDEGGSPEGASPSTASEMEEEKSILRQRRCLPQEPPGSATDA

[27] = biological target: PF-7802-labelled proteins in ARPE-19 cells (Homo sapiens, UniProt Q8N1N4); conditions: protein KRT78 Keratin, type II cytoskeletal 78 (Q8N1N4); one column per replicate

Sequence of UniProt P04075 (P04075 whole entry): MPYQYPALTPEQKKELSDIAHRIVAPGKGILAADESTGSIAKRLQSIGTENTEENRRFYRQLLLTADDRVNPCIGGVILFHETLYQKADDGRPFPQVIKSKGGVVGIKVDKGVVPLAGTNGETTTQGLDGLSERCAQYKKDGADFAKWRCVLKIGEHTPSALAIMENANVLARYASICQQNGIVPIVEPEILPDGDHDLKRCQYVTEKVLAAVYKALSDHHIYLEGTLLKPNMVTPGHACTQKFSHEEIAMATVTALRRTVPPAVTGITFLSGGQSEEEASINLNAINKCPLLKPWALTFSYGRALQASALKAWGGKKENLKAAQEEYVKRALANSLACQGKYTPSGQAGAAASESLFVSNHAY

CNC1CCN(C(=O)C[C@@H](Cc2ccccc2)C(=O)N[C@@H](CSC)C(=O)N[C@@H](CC2CCCCC2)[C@@H](O)C(=O)OC(C)C)CC1 [CP-108671, reference compound]
Median SILAC Ratio (Heavy/Light) [1]: 2.871
SILAC ratio (DMSO/CP-108671) ([2]; P05023 ATP1A1 Sodium/potassium-transporting ATPase subunit alpha-1): 0.86
Median SILAC Ratio (Heavy/Light) ([2]; protein ATP1A1 Sodium/potassium-transporting ATPase subunit alpha-1 (P05023)): 1.165
Median SILAC Ratio (Heavy/Light) [3]: 1.414 and 1.581
Median SILAC Ratio (Heavy/Light) [4]: 1.799
Median SILAC Ratio (Heavy/Light) [5]: 0.6539
SILAC ratio (DMSO/CP-108671) ([6]; P38646 HSPA9 Stress-70 protein, mitochondrial): 0.91
Median SILAC Ratio (Heavy/Light) ([6]; protein HSPA9 Stress-70 protein, mitochondrial (P38646), one column per replicate): 1.105
Median SILAC Ratio (Heavy/Light) [7]: 1.59
SILAC ratio (DMSO/CP-108671) ([8]; P49748 ACADVL Very long-chain specific acyl-CoA dehydrogenase, mitochondrial): 0.95
Median SILAC Ratio (Heavy/Light) ([8]; protein ACADVL Very long-chain specific acyl-CoA dehydrogenase, mitochondrial (P49748)): 1.64 and 0.8526
Median SILAC Ratio (Heavy/Light) [9]: 0.617
Median SILAC Ratio (Heavy/Light) [10]: 1.435
Median SILAC Ratio (Heavy/Light) [11]: 1.541
SILAC ratio (DMSO/CP-108671) ([12]; P62805 HIST4H4 Histone H4): 0.96
Median SILAC Ratio (Heavy/Light) ([12]; protein HIST4H4 Histone H4 (P62805), one column per replicate): 1.0412 and 0.9304
SILAC ratio (DMSO/CP-108671) [13]: 0.80
SILAC ratio (DMSO/CP-108671) [14]: 0.56

Cc1cc([C@H]2C[C@H]3[C@@H](C)SC(N)=N[C@@]3(c3ccc(F)cc3F)CO2)on1 [PF-9283]
Median SILAC Ratio (Heavy/Light) [15]: 0.01102
Median SILAC Ratio (Heavy/Light) [16]: 92.0508
Median SILAC Ratio (Heavy/Light) [17]: 2.35 and 1.921
Median SILAC Ratio (Heavy/Light) [18]: 1.184
Median SILAC Ratio (Heavy/Light) [19]: 1.263
Median SILAC Ratio (Heavy/Light) [20]: 1.212
Median SILAC Ratio (Heavy/Light) [21]: 0.7381
Median SILAC Ratio (Heavy/Light) [22]: 3.513
Median SILAC Ratio (Heavy/Light) [23]: 0.9161
Median SILAC Ratio (Heavy/Light) [24]: 1.107 and 1.058
Median SILAC Ratio (Heavy/Light) [25]: 1.184
Median SILAC Ratio (Heavy/Light) [26]: 0.8659
Median SILAC Ratio (Heavy/Light) [27]: 10.761

“And” between values parts separate entries of the source, which are not always exact repeats. Identical values can stand only once.
